{"source": "PubChem BioAssay AID504832", "about": "(National Center for Advancing Translational Sciences (NCATS), 2011)", "note": "Several values for one entry are separate records, joined by “and”; a condition that tells them apart may be missing. Identical values can stand only once. Among all 310,000 compounds or so, about 18,000 (5.8%) were called active. Inconclusive means that the source gave no clear call. Such entries were picked first, then a sample of the others. Calls come from the whole dose curve; as a rule, active = well fitted inhibition curve with a large enough effect; inconclusive = small, poorly fitted or top-dose-only effect, or another doubt; inactive = no such curve, though single readings can be large or run the other way. Potencies of inconclusive entries are doubtful fits and often do not repeat. Potency is the fitted concentration of half-maximal effect; tags give direction and shape of the fitted curve.", "data": [{"test": "Primary qHTS for delayed death inhibitors of the malarial parasite plastid, 48 hour incubation", "conditions": "P. falciparum luciferase growth in erythrocytes; series mostly up to 28.7 µM", "method_in_brief": "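A one-generation exposure of luciferase-tagged malaria parasites in RPMI 1640/Albumax erythrocyte culture, 37 C and 5% CO2. Inhibition is inferred from decreased luminescence after adding detection reagent.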", "values": [{"smiles": "O=C(c1ccc(F)cc1)C1CCN(C(=O)c2ccccc2)CC1", "Potency": "inactive"}, {"smiles": "CC(Sc1nnc(C2CC2)n1C1CC1)C(=O)NCc1cccs1", "note": "(stereo not drawn)", "Potency": "inconclusive: 18.5 µM [inhibitor, single point]"}, {"smiles": "CC1CCCN(C(=O)COC(=O)c2ccc(=O)n(Cc3ccccc3)n2)C1", "note": "(stereo not drawn)", "Potency": "inactive"}, {"smiles": "CCn1ncc([C@@H]2C[C@H]3CN(Cc4ccccc4C)C(=O)[C@]34CCCN24)c1C", "Potency": "inconclusive: 11.7 µM [inhibitor, partial curve]"}, {"smiles": "Cc1ccc(NC(=O)CSc2nnc(C3CC3)n2N)cc1S(=O)(=O)N1CCOCC1", "Potency": "inconclusive: 1.47 µM [inhibitor, partial curve, poor fit]"}, {"smiles": "Cc1ccc(NC(=O)C2CCCCC2)cc1C", "Potency": "inconclusive: 0.0294 µM [inhibitor, full curve, poor fit]"}, {"smiles": "CCOC(=O)c1c(NC(=O)CCN2CCOCC2)sc(C)c1-c1ccccc1", "Potency": "inconclusive: 18.5 µM [inhibitor, single point]"}, {"smiles": "O=C(CN(Cc1ccc(F)cc1)C(=O)CCC(=O)Nc1nccs1)NCC1CCCO1", "note": "(stereo not drawn)", "Potency": "inactive"}, {"smiles": "O=C1CC(C(=O)N2CCC(N3CCC(C(=O)NC4CC4)CC3)CC2)c2ccccc21", "note": "(stereo not drawn)", "Potency": "inconclusive: 0.0208 µM [inhibitor, full curve, poor fit]"}, {"smiles": "COc1cc2c(cc1OC)C(C)N(Cc1ccc3c(c1)OCO3)CC2", "note": "(stereo not drawn)", "Potency": "inactive"}, {"smiles": "Cc1ccc(OCC(=O)NCc2n[nH]c(=O)c3ccccc23)cc1", "Potency": "inactive"}, {"smiles": "CCOC(=O)N1CCC(N2CCCC(CO)(Cc3cccc(Cl)c3)C2)CC1", "note": "(stereo not drawn)", "Potency": "inconclusive: 7.38 µM [inhibitor, partial curve, poor fit]"}, {"smiles": "O=C(Nc1ccccc1)c1ccc(=O)n(Cc2cccc(Cl)c2)c1", "Potency": "inconclusive: 7.38 µM [inhibitor, partial curve, poor fit]"}, {"smiles": "Clc1ccc(Cn2c(CN3CCCC3)nc3ccccc32)cc1", "Potency": "inconclusive: 5.73 µM [inhibitor, partial curve, poor fit] and inconclusive: 18.5 µM [inhibitor, single point]"}, {"smiles": "N#CC1=C(SCC(=O)NCc2ccccc2)NC(=O)CC1c1ccco1", "note": "(stereo not drawn)", "Potency": "inactive"}, {"smiles": "COc1cc(Br)c(C(C)NC(=O)c2ccccc2)cc1OC", "note": "(stereo not drawn)", "Potency": "active: 13.1 µM"}, {"smiles": "Cc1ncc([N+](=O)[O-])n1CC(=O)Nc1ccc(F)c(Cl)c1", "Potency": "inconclusive: 0.0928 µM [inhibitor, full curve, poor fit]"}, {"smiles": "CCCn1c(=N)n(CC(=O)OCC)c2ccccc21", "Potency": "inactive"}, {"smiles": "O=C(CCC1CCCN(C(=O)CCC(F)(F)F)C1)NCc1ccc(F)c(F)c1", "note": "(stereo not drawn)", "Potency": "inactive"}, {"smiles": "Cc1ccc(C)c(OCc2cc(C(=O)N3CC[C@@H]4CCCC[C@H]4C3)no2)c1", "Potency": "inactive"}, {"smiles": "CN(C)S(=O)(=O)c1cccc(NC(=O)c2c[nH]c3ccccc23)c1", "Potency": "inactive"}, {"smiles": "CC(=O)Nc1sc2c(c1C(=O)N1CCOCC1)CCCCC2", "Potency": "inactive"}, {"smiles": "Cc1cc(C)cc(NC(=O)C2CCCN(c3nccc(C)n3)C2)c1", "note": "(stereo not drawn)", "Potency": "inconclusive: 18.5 µM [inhibitor, single point]"}, {"smiles": "O=C(Nc1ccc(C(=O)NCCCN2CCN(c3ccccc3)CC2)cc1)C1=CSCCO1", "Potency": "inconclusive: 18.5 µM [inhibitor, single point]"}, {"smiles": "O=C1C=C(c2ccc3c(c2)oc2ccccc23)C[C@@H](c2ccc3c(c2)OCO3)C1", "Potency": "inactive"}, {"smiles": "COc1ccc(CCNC(=O)CCCCCN2C(=O)[C@@H]3Cc4ccccc4CN3C2=O)cc1OC", "Potency": "inconclusive: 18.5 µM [inhibitor, single point]"}, {"smiles": "Cc1cccc(C(=O)Oc2ccccc2/C=N/NC(=O)c2ccc(NC(=O)C(C)(C)C)cc2)c1", "Potency": "inconclusive: 13.1 µM [inhibitor, partial curve]"}, {"smiles": "C=CCNC(=O)c1onc(CSc2cccc(C)c2)c1C(=O)O", "Potency": "inactive"}, {"smiles": "COc1ccc(S(=O)(=O)N2CCN(C(=O)c3ccc(C)o3)CC2)cc1", "Potency": "inconclusive: 4.65 µM [inhibitor, partial curve, poor fit]"}, {"smiles": "CC(C(=O)N1CCOCC1)N1C(=O)c2cccc3cccc(c23)C1=O", "note": "(stereo not drawn)", "Potency": "inactive"}, {"smiles": "Cc1cc(NC(=O)CSc2nnc(-c3ccccc3C)n2C)no1", "Potency": "inconclusive: 18.5 µM [inhibitor, single point]"}, {"smiles": "Cc1ccc(/C=N/N2C(=S)SC(C)(C)C2N(O)C(=O)Nc2ccc([N+](=O)[O-])cc2)cc1", "note": "(stereo not drawn)", "Potency": "inconclusive: 10.4 µM [inhibitor, single point]"}, {"smiles": "Oc1ccc(C=NCC2COc3ccccc3O2)cc1", "note": "(stereo not drawn)", "Potency": "inactive"}, {"smiles": "CCCCN=C1CC(C)(C)CC(=O)/C1=C(/O)CCC", "Potency": "inconclusive: 0.104 µM [inhibitor, full curve, poor fit]"}, {"smiles": "NC(=O)COC(=O)CC(c1ccccc1)c1ccccc1", "Potency": "inconclusive: 11.7 µM [inhibitor, single point]"}, {"smiles": "COC(=O)CCC(=O)NNC(=O)Cc1ccccc1", "Potency": "inconclusive: 20.8 µM [inhibitor, single point]"}, {"smiles": "O=C(NCc1ccccc1)C1CCN(c2nc(-c3ccccc3)nc3c2CCC3)CC1", "Potency": "inconclusive: 1.85 µM [inhibitor, full curve]"}, {"smiles": "COc1cc(/C=N\\Nc2nc3ccccc3[nH]2)cc(OC)c1OC", "Potency": "active: 0.165 µM"}, {"smiles": "COc1cc(C(=O)NCCc2ccc(S(=O)(=O)N3CCCC3)cc2)cc(OC)c1OC", "Potency": "inconclusive: 13.1 µM [inhibitor, single point]"}, {"smiles": "CCN(CC1COc2ccccc2O1)C(=S)NCCCN(C)C", "note": "(stereo not drawn)", "Potency": "inactive"}, {"smiles": "CNC(CC(C)C)C(=O)NC1C(=O)NC(CC(N)=O)C(=O)NC2C(=O)NC3C(=O)NC(C(=O)NC(C(=O)O)c4cc(O)cc(O)c4-c4cc3ccc4O)C(O)c3ccc(c(Cl)c3)Oc3cc2cc(c3OC2OC(CO)C(O)C(O)C2OC2C[C@](C)(N)C(O)C(C)O2)Oc2ccc(cc2Cl)C1O", "note": "(stereo partly drawn)", "Potency": "inconclusive: 13.1 µM [inhibitor, partial curve, poor fit]"}, {"smiles": "CCCn1c(=O)c(C(=O)NCc2ccccc2)c(O)c2ccccc21", "Potency": "inactive"}, {"smiles": "CCCCCNCC(=O)Nc1cc(C(F)(F)F)ccc1OCCOC", "Potency": "inconclusive: 11.7 µM [inhibitor, partial curve]"}, {"smiles": "Fc1ccc2[nH]c3c(NCc4ccccc4)ncnc3c2c1", "Potency": "active: 5.86 µM"}, {"smiles": "Cc1cccc(NC(=O)CSc2nnc(-c3ccncc3)n2CC2CCCO2)c1", "note": "(stereo not drawn)", "Potency": "inactive"}, {"smiles": "Cc1ccc(NC(=O)C(=O)NCC2CCCN2S(=O)(=O)c2cccs2)c(C)c1", "note": "(stereo not drawn)", "Potency": "inconclusive: 13.1 µM [inhibitor, single point]"}, {"smiles": "CCOC(=O)c1sc2nc3c(SCCC#N)cc(C(=O)c4cc(F)ccc4O)cn3c(=O)c2c1C", "Potency": "active: 0.828 µM"}, {"smiles": "CCCn1c(N)c(C(=O)CN(C)CC(=O)Nc2c(Cl)cccc2Cl)c(=O)[nH]c1=O", "Potency": "inconclusive: 18.5 µM [inhibitor, single point]"}, {"smiles": "Cc1c(NC(=O)Nc2ccc(C(C)(C)C)cc2)c(=O)n(-c2ccccc2)n1C", "Potency": "inactive"}, {"smiles": "CC(C)[C@H](NC(=O)c1ccccc1)C(=O)OCc1nnc(-c2ccccc2)o1", "Potency": "inactive"}, {"smiles": "Cc1ccc(-n2c(SCn3nnc4ccccc4c3=O)nnc2-c2cccnc2)c(C)c1", "Potency": "active: 10.4 µM"}, {"smiles": "Cc1cccc(NC(=O)c2ccc3nc(N4CCOCC4)sc3c2)c1C", "Potency": "inconclusive: 3.29 µM [inhibitor, full curve, poor fit]"}, {"smiles": "O=C(COc1ccc(Cl)cc1)NCc1nnc2c3ccccc3c(-c3ccccc3)nn12", "Potency": "inactive"}, {"smiles": "CCOc1ccc(NC(=O)CN(C)C(=O)CSCc2ccc(C)cc2)cc1OCC", "Potency": "inconclusive: 13.1 µM [inhibitor, partial curve, poor fit]"}, {"smiles": "Cc1cc(/C=C2/C(=N)N3C(c4ccccc4)=CSC3=NC2=O)c(C)n1-c1ccccc1", "Potency": "inactive"}, {"smiles": "O=C(NCCC1=CCCCC1)c1cc(-c2ccccn2)nc2ccccc12", "Potency": "inconclusive: 14.7 µM [inhibitor, partial curve]"}, {"smiles": "Clc1ccc(Cl)c(OCc2cc(-c3ccccc3Cl)on2)c1", "Potency": "inconclusive: 4.15 µM [inhibitor, single point]"}, {"smiles": "COCCCNCCCOc1ccc(C(C)(C)c2ccccc2)cc1", "Potency": "inconclusive: 14.7 µM [inhibitor, partial curve, poor fit]"}, {"smiles": "COc1ccccc1/C=C/CN1CCCC(CCC(=O)NCc2ccc(F)c(F)c2)C1", "note": "(stereo not drawn)", "Potency": "inconclusive: 11.7 µM [inhibitor, partial curve]"}, {"smiles": "CCC(O)c1nc2ccccc2n1CCc1ccccc1", "note": "(stereo not drawn)", "Potency": "inconclusive: 18.5 µM [inhibitor, single point]"}, {"smiles": "COc1ccc2c(c1)c1ccc3c(c1n2C)C(=O)C=CC3=O", "Potency": "inconclusive: 6.57 µM [inhibitor, partial curve, poor fit]"}, {"smiles": "COc1ccc(Cl)cc1NC(=O)CSc1nnc(CN2CCOCC2)n1-c1ccc(Cl)cc1", "Potency": "inconclusive: 11.7 µM [inhibitor, single point]"}, {"smiles": "CCOc1ccc(NCC(=O)Nc2ccc(C)cc2C)cc1", "Potency": "inconclusive: 18.5 µM [inhibitor, single point]"}, {"smiles": "COc1ccc(CNc2ncccc2[N+](=O)[O-])cc1", "Potency": "inactive"}, {"smiles": "O=C(COc1ccc(Cl)cc1Cl)N/N=C/c1cccnc1", "Potency": "inconclusive: 20.8 µM [inhibitor, single point]"}, {"smiles": "O=c1c(OC2OC(CO)C(O)C(O)C2O)c(-c2ccc(O)c(O)c2)oc2cc(O)cc(O)c12", "note": "(stereo not drawn)", "Potency": "inconclusive: 20.8 µM [inhibitor, partial curve, poor fit]"}, {"smiles": "N#CC1=C(N)NC(SCc2ccc(Br)cc2)=C(C#N)C12CCCCC2", "Potency": "inconclusive: 18.5 µM [inhibitor, single point]"}, {"smiles": "CCCCN(C)CCNC(=O)C1CCCN(S(=O)(=O)c2cccc3nsnc23)C1", "note": "(stereo not drawn)", "Potency": "inconclusive: 6.57 µM [inhibitor, partial curve, poor fit]"}]}]}
